SMILES strings stand for the structures. Several values for one entry are separate records, joined by “and”; a condition that tells them apart may be missing. Equal entries are not always repeated. The list shows a part of the results. The main result of the screen is listed elsewhere. These columns were measured beside it and carry no call.

What all share (assay): Primary Screen for Target Class Profiling of Small Molecule Inhibitors of Methyltransferases
The target in assay [1] is Glycine N-methyltransferase (Homo sapiens) (UniProt Q14749). To be noted: purified enzyme, MTase-Glo SAH luminescence; measured here: GNMT inhibition; at 40 µM; stronger effect = lower value. A digest of the protocol:
(§1)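 Each enzyme was assayed with SAM and its substrate. SAH formation detected by MTase-Glo luminescence; single-point 40 uM screen[…].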

In assay [2] the target is Guanidinoacetate N-methyltransferase (Homo sapiens) (UniProt Q14353). The following applies: purified enzyme, MTase-Glo SAH luminescence; measured here: GAMT inhibition; at 40 µM; stronger effect = lower value. In short, it runs like this:
as §1

Assay [3] addresses Histamine N-methyltransferase (Homo sapiens) (UniProt P50135). The following applies: purified enzyme, MTase-Glo SAH luminescence; measured here: HNMT inhibition; at 40 µM; stronger effect = lower value. A digest of the protocol: as §1
The target of assay [4] is Nicotinamide N-methyltransferase (Homo sapiens) (UniProt P40261). The following applies: purified enzyme, MTase-Glo SAH luminescence; measured here: NNMT inhibition; at 40 µM; stronger effect = lower value. In short, it runs like this:
as §1

In assay [5] the target is Phenylethanolamine N-methyltransferase (Homo sapiens) (UniProt P11086). The following applies: purified enzyme, MTase-Glo SAH luminescence; measured here: PNMT inhibition; at 40 µM; stronger effect = lower value. A digest of the protocol:
as §1
% is scaled to controls: 0 for no effect and ±100 for the full control effect.

`CC(=O)Nc1c2n(c3ccc(F)cc13)CC(C)(C(=O)NCCC(C)C)N(C1CCCCCC1)C2=O` (stereo not given): the activity change, negative = inhibition was 0.567% in assay [1]; 0.802% in assay [2]; 3.64% in assay [3]; -5.8% in assay [4]; -0.642% in assay [5].
The matching figures for `CC1CCCC(C)N1CCCN1C(=O)c2cc3occc3n2CC1(C)C(=O)NC1CCCCC1` (stereo not given): -4.73%, 0%, -3.72%, 7.4% and -2.05%.
On to `CC(C)(C)CN1CCC2(CC1)COc1ccccc1[S+](=O)([O-])N2`, for which the activity change, negative = inhibition in assay [1] is -3.71%; in assay [2] it was -4.27%; in assay [3] it was -3.72%; in assay [4], -10.7%; in assay [5] it was 6.37%.
Consider `Nc1cc(=O)[nH]c(N)n1`, for which the activity change, negative = inhibition in assay [1] was 3.21%; in assay [2], 15.4%; in assay [3], 11.8%; in assay [4] it was -4.63%; in assay [5], 2%.
For the molecule `OCC(O)CCO/N=C1/C(c2c(O)[nH]c3ccccc23)=Nc2ccccc21` (stereo not given), the activity change, negative = inhibition in assay [2] was -22.7%; in assay [4], -29.9%; in assay [5], -21%.
Regarding `COc1c2c(c(C)c3c1C(=O)OC3)O[C@@]1(C)CCC3(C(C)(C)O)OC(=O)CC[C@]3(C)[C@H]1C2` (stereo not given in full), the activity change, negative = inhibition in assay [1] was -7.7%; in assay [2], -8.35%; in assay [3], -6.84%; in assay [4], -19%; in assay [5], -0.566%.
In the case of `N[C@@H](Cc1c[nH]c2ccccc12)C(=O)O`, the activity change, negative = inhibition in assay [1] was -12.7%; in assay [2], 0.339%; in assay [3] it was -5.69%; in assay [4], -9.63%; in assay [5] it was -9.63%.
For `CCCn1c(=O)c2ccc(C(=O)NC(C)C)cc2n2c(=O)n(CC(=O)Nc3ccc(C)cc3Cl)nc12`, the activity change, negative = inhibition was 5.73% in assay [1]; 0% in assay [2]; -2.19% in assay [3]; 3.75% in assay [4]; 2.83% in assay [5].
Regarding `CCOC(=O)c1cccc(NS(=O)(=O)c2ccc3c(c2)n(C)c(=O)n3C)c1`, the activity change, negative = inhibition in assay [1] was -4.05%; in assay [2] it was 2.42%; in assay [3], -10.7%; in assay [4], -8.95%; in assay [5] it was -7.86%.
In the case of `CN[C@@H]1[C@@H](O)[C@@H](O[C@@H]2[C@@H](O)[C@H](O[C@H]3O[C@@H]([C@@H](C)NC)CC[C@H]3N)[C@@H](N)C[C@H]2N)OC[C@]1(C)O`, the activity change, negative = inhibition in assay [1] is 4.58%; in assay [3], 2.13%.
On to `CN1CC2(CCOC2)N(C2CCN(C(=O)C3CCCC3)CC2)C1=O` (stereo not given), for which the activity change, negative = inhibition was -2.75% in assay [1]; -9.08% in assay [2]; -4.12% in assay [3]; -12.2% in assay [4]; -9.56% in assay [5].
The matching figures for `CC1CCN(CCCNC(=O)CCc2nnc3n(Cc4ccccc4Cl)c(=O)c4ccccc4n23)CC1`: -4.73%, 0.234%, -60.4%, 0.425% and -4.51%.
Take `CCc1cccc(NS(=O)(=O)c2ccc3[nH]c(=O)[nH]c3c2)c1`: the activity change, negative = inhibition in assay [1] is 0.346%; in assay [2] it was 0.954%; in assay [3] it was 2.93%; in assay [4], -4.95%; in assay [5], -11.4%.
Take `CCOc1ccccc1CN1C(=O)c2c(C(=O)OC)ncn2CC1(C)C(=O)NC1CCCC1` (stereo not given): the activity change, negative = inhibition in assay [1] is -2.58%; in assay [2], 3.49%; in assay [3], -0.314%; in assay [4], 6.83%; in assay [5], -1.64%.
Regarding `CCCn1c(=O)c2ccccc2n2c(=O)n(CC(=O)c3ccc(OC)cc3)nc12`, the activity change, negative = inhibition in assay [1] is -3.06%; in assay [2] it was 6.05%; in assay [3], 5.97%; in assay [4] it was -5.68%; in assay [5] it was 1.69%.
For `CCOc1ccc(CCNC(=O)c2cc3sc(Cl)cc3n2C)cc1OCC`, the activity change, negative = inhibition in assay [1] was 4.58%; in assay [2], -1.87%; in assay [3] it was 13.1%; in assay [4], -15.3%; in assay [5], -6.3%.
As for `Cc1cc2ncc(C(=O)N3CCN(c4ncccn4)CC3)cn2n1`, the activity change, negative = inhibition in assay [1] was -3.9%; in assay [2], -2.22%; in assay [3], -0.266%; in assay [4], -7.22%; in assay [5] it was -2.76%.
With `C/C=C/C=C/[C@@H]1O[C@](O)([C@H](CC)C(=O)NC/C=C/C=C(\C)[C@@H](OC)[C@@H](C)[C@@H]2O[C@H](/C=C/C=C/C=C(\C)C(=O)c3c(O)ccn(C)c3=O)[C@H](O)[C@@H]2O)[C@H](O)[C@H](O)C1(C)C`, the activity change, negative = inhibition in assay [1] was -0.426%; in assay [2], -1.02%; in assay [3], -3.55%; in assay [4], -12.9%; in assay [5] it was 1.95%.
As for `CS(=O)(=O)c1ccc(-n2nc(C(F)(F)F)cc2-c2ccc(F)cc2)cc1`, the activity change, negative = inhibition in assay [1] was 4.57% and 1.26%; in assay [2], 13.2% and -0.675%; in assay [3], 10.8% and 5.45%; in assay [4], -5.88% and -14%; in assay [5], 1.18% and -0.967%.
`O=C(O)[C@@H]1CN(C(=O)CCCc2cn[nH]c2)C[C@H]1c1ccc2c(c1)OCO2`: the activity change, negative = inhibition was -5.96% in assay [1]; -8.79% in assay [2]; -2.03% in assay [3]; -13.9% in assay [4]; -10.2% in assay [5].
The matching figures for `COCCOC1CCN(C(C(=O)O)c2ccc(OC)c(F)c2)CC1` (stereo not given): -4.18%, -3.73%, -1.73%, -7.74% and -13.1%.
The corresponding values for `COc1ccc(CNC(=O)CCn2ccc3cc(S(=O)(=O)N4CCCCC4)ccc32)cc1OC` are -2.3%, 0.877%, -2.99%, 0.901% and 0.365%.
`Cc1ccc(N2C(=O)c3cc4sccc4n3CC2(C)C(=O)NC2CCC(C)CC2)cc1C` (stereo not given): the activity change, negative = inhibition in assay [1] is 2.56%; in assay [2], 0%; in assay [3], 0.133%; in assay [4], 0.525%; in assay [5], -3.81%.
The corresponding values for `CCc1cc2c(cc3n2CC(C)(C(=O)NC2CCCCCC2)N(c2ccc(C)c(C)c2)C3=O)s1` (stereo not given) are 2.95%, 0%, 4.54%, 5.99% and 2.72%.
With `O=C(CC1CCOC2(CCN(S(=O)(=O)c3ccc(F)cc3)CC2)C1)N1CCOCC1` (stereo not given), the activity change, negative = inhibition stood at 2.44% in assay [1]; 0.112% in assay [2]; 6.56% in assay [3]; 3.87% in assay [4]; 1.83% in assay [5].
For the molecule `CC1(C)C[C@H](O)C[C@@]2(C)OC(=O)C=C12`, the activity change, negative = inhibition in assay [1] was -6.14%; in assay [2], -22.3%; in assay [3], -0.127%; in assay [4], -31.8%; in assay [5], -4.12%.
On to `Cc1ccc(=O)n(-c2ccccc2)c1`, for which the activity change, negative = inhibition in assay [1] is 1.63%; in assay [2], 13.3%; in assay [3], 8.71%; in assay [4], -2.55%; in assay [5], 7.41%.
The matching figures for `Cc1cccc(NC(=O)CSc2nnc3n(CC(C)C)c(=O)c4ccccc4n23)c1`: -2.77%, 2.63%, 6.94%, -4.31% and 2.81%.
The matching figures for `Cc1nc(C(=O)N2CC[C@H](NC(=O)c3snnc3C)C[C@H]2C(=O)N[C@H](CC(C)C)C(N)=O)cs1`: -7.78%, -10.5%, -3%, -13.6% and -0.516%.
Regarding `CCc1ccc(CNC(=O)c2cc3n(n2)CC(C)(C(=O)NCc2ccc(C)cc2)N(C)C3=O)cc1` (stereo not given), the activity change, negative = inhibition was -0.524% in assay [1]; 0.325% in assay [2]; -0.38% in assay [3]; -8.38% in assay [4]; -1.28% in assay [5].

For the origin of these results see PubChem BioAssay AID1745853 (National Center for Advancing Translational Sciences (NCATS), 2022).
